{"source": "PubChem BioAssay AID485364", "about": "(National Center for Advancing Translational Sciences (NCATS), 2010)", "note": "Screen size: about 360,000 compounds; about 11,000 (3.1%) were called active. The shares of active, inactive and inconclusive entries below differ from those in the screen. Calls follow the shape of the dose curve; as a rule, active = well fitted inhibition curve with a large enough effect; inconclusive = small, poorly fitted or top-dose-only effect; inactive = no such curve, though single readings can be large or run the other way. No potency is given beside an inconclusive call; the fits are too rough. Potency is read from the fitted curve at half-maximal effect; tags tell the direction and shape of the fitted curve."}
{"molecular_target": "Schistosoma mansoni thioredoxin glutathione reductase (TGR) (UniProt Q962Y6)", "assay": "qHTS Assay for the Inhibitors of Schistosoma Mansoni Peroxiredoxins; also: nearly all actives have a fitted effect of over 60% in size", "conditions": "purified TGR, DTNB reduction, TNB absorbance 405 nm; series mostly up to 114 µM", "in_short": "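Kinetic colorimetric format: TGR-catalysed, NADPH-driven DTNB reduction monitored via TNB absorbance. Enzyme dispensed at 20 nM; compound exposure 15 min at room temperature before reaction start.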"}
{"smiles": "O=C1CCCC2=C1C1(CCCC1)N=C(Nc1nc3ccccc3o1)N2", "Potency": "inconclusive [inhibitor, partial curve]"}
{"smiles": "O=C(COC(=O)c1cccc(OC(F)F)c1)NC1CCCC1", "Potency": "inactive"}
{"smiles": "CC1CCC(NC(=O)C2COc3ccccc3O2)CC1", "note": "(centres undefined)", "Potency": "inconclusive [inhibitor, partial curve]"}
{"smiles": "S=C1NC2(CCS1)Oc1ccccc1C1CC(c3ccccc3)=NN12", "note": "(centres undefined)", "Potency": "inactive"}
{"smiles": "CCC1=C/C(=C/N(C)c2ccccc2)C(=O)S1", "Potency": "inconclusive [inhibitor, partial curve]"}
{"smiles": "Cn1cnc([N+](=O)[O-])c1Sc1ccccc1", "Potency": "active: 50.1 µM"}
{"smiles": "O=c1cc(O)n(-c2ccccc2F)c(=S)[nH]1", "Potency": "inconclusive [inhibitor, full curve]"}
{"smiles": "COCCn1c(SCC(=O)c2c[nH]c3ccccc23)nnc1-c1ccncc1", "Potency": "inactive"}
{"smiles": "Cc1nc(N2C(=O)C(=O)/C(=C(/O)c3ccccc3)C2c2ccco2)sc1C", "note": "(centres undefined)", "Potency": "inconclusive [inhibitor, full curve, poor fit]"}
{"smiles": "CC(=O)Nc1ccc(S(=O)(=O)N2CCc3c(Cl)cccc3C2)cc1", "Potency": "inactive"}
{"smiles": "Cc1nn(C)c(C)c1/C=C(/C(=O)C(C)(C)C)n1cncn1", "Potency": "inconclusive [inhibitor, partial curve]"}
{"smiles": "CN1CCC(=O)N([C@H](CC#N)c2ccccc2)CC1", "Potency": "inconclusive [inhibitor, partial curve]"}
{"smiles": "Cc1c(NS(=O)(=O)c2ccc(N)cc2)c(=O)n(-c2ccccc2)n1C", "Potency": "inconclusive [inhibitor, single point]"}
{"smiles": "CC(C)(C)C(=O)/C(=C/c1ccc(Cl)cc1)n1cncn1", "Potency": "inconclusive [inhibitor, partial curve]"}
{"smiles": "Cc1ccc(C(=O)Nc2ccc(N3CCCC3)cc2)c(C)c1", "Potency": "inconclusive [inhibitor, partial curve]"}
{"smiles": "CCn1nc(C(=O)OCC(=O)Nc2nc(-c3ccc(OC)cc3)cs2)c2ccccc2c1=O", "Potency": "inconclusive [inhibitor, partial curve]"}
{"smiles": "C1CCC2(CC1)C1=C(CCCC1)Nc1nnnn12", "Potency": "active: 44.7 µM"}
{"smiles": "COc1ccc(-n2cc(CNCCCn3ccnc3)c(-c3ccccc3Cl)n2)cc1", "Potency": "inconclusive [inhibitor, partial curve]"}
{"smiles": "COc1ccc(CCc2nnc(CCC(=O)N(C)Cc3ccncc3C)o2)cc1", "Potency": "inconclusive [inhibitor, single point]"}
{"smiles": "COc1ccc(Cn2c(=S)[nH]c3cc(C(=O)N4CCN(c5ccccc5)CC4)ccc3c2=O)cc1", "Potency": "inactive"}
{"smiles": "CC(=O)N1CCN(CCN=CC2=C(O)CC(c3ccc(Cl)cc3)CC2=O)CC1", "note": "(centres undefined)", "Potency": "inconclusive [inhibitor, partial curve]"}
{"smiles": "Cn1c(O)c(/C=C2\\N=c3ccccc3=C2CCNC(=S)NC2CC2)c(=O)n(C)c1=O", "Potency": "active: 5.62 µM"}
{"smiles": "O=C1C2CC=C(Cl)CC2C(=O)N1CN(Cc1ccco1)CN1C(=O)C2CC=C(Cl)CC2C1=O", "note": "(centres undefined)", "Potency": "active: 50.1 µM"}
{"smiles": "COc1ccc(Sc2nnc(Cc3ccccc3)c3ccccc23)cc1", "Potency": "inconclusive [inhibitor, single point]"}
{"smiles": "Cn1c(=O)oc2cc(S(=O)(=O)NCCC(=O)Nc3ccc(F)c(Cl)c3)ccc21", "Potency": "inactive"}
{"smiles": "CC[C@@]12C(=O)N(c3cccc(F)c3)C(=O)N1[C@H](c1ccc(Br)cc1)[C@@H]1C(=O)N(C(C)(C)C)C(=O)[C@@H]12", "Potency": "inactive"}
{"smiles": "c1ccc(CC2CCN(c3nc4ccccc4n4nnnc34)CC2)cc1", "Potency": "inactive"}
{"smiles": "CCOc1ncccc1C(=O)OCC(=O)Nc1cc(S(=O)(=O)N2CCOCC2)ccc1C", "Potency": "inactive"}
{"smiles": "CSC1=N/C(=C/c2cccnc2)C(=O)N1Cc1ccc(Cl)cc1", "Potency": "inconclusive [inhibitor, single point]"}
{"smiles": "O=C(CCN1C(=O)c2ccccc2C1=O)CN1CCOCC1", "Potency": "inconclusive [inhibitor, partial curve]"}
{"smiles": "CCOC(=O)c1c(C)cc(C)n2c1nc1ccccc12", "Potency": "inactive"}
{"smiles": "CCOC(=O)Cc1csc(NC(=O)/C=C/c2ccco2)n1", "Potency": "active: 11.2 µM"}
{"smiles": "COc1cccc(-c2nnc3n2N=C(c2cccc(Br)c2)CS3)c1", "Potency": "inconclusive [inhibitor, single point]"}
{"smiles": "COc1ccccc1C(=O)COC(=O)CN1C(=O)C2CC=CCC2C1=O", "note": "(centres undefined)", "Potency": "inconclusive [inhibitor, partial curve]"}
{"smiles": "CC[n+]1c(/C=C/C=C/c2ccc(N(C)C)cc2)sc2ccccc21", "Potency": "inconclusive [inhibitor, partial curve]"}
{"smiles": "O=S(=O)(c1ccccc1)c1nc(-c2ccc(F)cc2)oc1N1CCOCC1", "Potency": "inconclusive [inhibitor, partial curve]"}
{"smiles": "CN(C)c1ccc(/C=N/NC(=O)c2ccccc2O)o1", "Potency": "active: 22.4 µM"}
{"smiles": "Cc1ccc(NC(=S)Nc2cccc(S(=O)(=O)Nc3c(C)n(C)n(-c4ccccc4)c3=O)c2)cc1", "Potency": "active: 50.1 µM"}
{"smiles": "CN(C[C@@H](CC1CCCCC1)N(C[C@H](Cc1ccccc1)N(CCc1ccccc1)N=O)N=O)N=O", "Potency": "inactive"}
{"smiles": "CN(Cc1ccco1)C(=O)c1ccc(OC2CCN(Cc3ccccn3)CC2)cc1", "Potency": "inconclusive [inhibitor, partial curve]"}
{"smiles": "COCCn1c(=NC(=O)CCS(=O)(=O)c2ccccc2)sc2c(OC)ccc(OC)c21", "Potency": "inconclusive [inhibitor, partial curve]"}
{"smiles": "O=C(O)/C=C\\C(=O)Nc1ccccc1C(=O)NCc1ccccc1", "Potency": "inconclusive [inhibitor, partial curve]"}
{"smiles": "O=C(/C=C/c1ccco1)N1CCC(Cc2ccccc2)CC1", "Potency": "active: 20 µM"}
{"smiles": "CCC(C)(C)n1nnnc1C(c1cc2cccc(C)c2[nH]c1=O)N1CCCC1", "note": "(centres undefined)", "Potency": "active: 10 µM"}
{"smiles": "O=C(O)c1cc(N/N=C/c2cccnc2)ccc1Cl", "Potency": "inconclusive [inhibitor, partial curve]"}
{"smiles": "COc1ccc(N2C(=O)CS/C2=C\\[N+](=O)[O-])cc1", "Potency": "inactive"}
{"smiles": "COc1ccc2c(c1)CC1(CN2C)C(=O)NC(=O)N(c2ccc(F)cc2)C1=O", "note": "(centres undefined)", "Potency": "inconclusive [inhibitor, partial curve]"}
{"smiles": "Cc1ccc(NC(=O)C2(S(=O)(=O)c3ccc(C)cc3)CC2)cc1", "Potency": "inactive"}
{"smiles": "COc1cc(N=c2ssnc2Cl)c(OC)cc1Cl", "Potency": "inconclusive [inhibitor, partial curve]"}
{"smiles": "c1ccc(-c2ccc(C3CCCN3)cc2)cc1", "note": "(centres undefined)", "Potency": "inconclusive [inhibitor, partial curve]"}
{"smiles": "Cn1nnc2c[n+](CC(=O)c3ccc(Cl)cc3)cc(Br)c21", "Potency": "inconclusive [inhibitor, partial curve]"}
{"smiles": "CCC1CCCCN1C(=O)COc1ccccc1NC(C)=O", "note": "(centres undefined)", "Potency": "active: 50.1 µM"}
{"smiles": "COc1ccccc1N1CCN(c2ncc3c(n2)CCN(Cc2ccccc2C)C3)CC1", "Potency": "inactive"}
{"smiles": "O=[N+]([O-])c1ccccc1OCCCOc1cccc2cccnc12", "Potency": "inactive"}
{"smiles": "Cn1c(CNC(=O)c2ccc(Cl)cc2)nnc1SCC(=O)Nc1sc2c(c1C#N)CCCC2", "Potency": "inconclusive [inhibitor, partial curve]"}
{"smiles": "CN(C)c1ccc(/C=C2/C(=O)NC(=O)N(Cc3ccco3)C2=O)cc1", "Potency": "inconclusive [inhibitor, full curve, poor fit]"}
{"smiles": "O=C(O)/C=C/C(=O)NNC(=O)c1ccccc1Br", "Potency": "active: 3.55 µM"}
{"smiles": "Cc1ccc2c(CNCCc3ccco3)c(C(=O)O)n(Cc3ccc(F)cc3)c2c1", "Potency": "active: 39.8 µM"}
{"smiles": "COC(=O)c1sc(N)c(C(=O)OC)c1COC(=O)C1CC(=O)N(Cc2ccco2)C1", "note": "(centres undefined)", "Potency": "inconclusive [inhibitor, partial curve]"}
{"smiles": "Cc1ccc(CCC(=O)Nc2ccc([N+](=O)[O-])cc2)o1", "Potency": "inconclusive [inhibitor, partial curve, poor fit]"}
{"smiles": "CC(C)(C)c1cc(C(c2cccnc2)N2CCN(CCO)CC2)cc(C(C)(C)C)c1O", "note": "(centres undefined)", "Potency": "active: 0.447 µM"}
{"smiles": "O=c1c2ccccc2sn1-c1ccc(S(=O)(=O)N2CCCC2)cc1", "Potency": "inconclusive [inhibitor, partial curve]"}
{"smiles": "Cc1cc([N+](=O)[O-])nn1CC(=O)NCc1ccccc1", "Potency": "inconclusive [inhibitor, full curve, poor fit]"}
{"smiles": "CCOCC(=O)Nc1nc2ccccc2s1", "Potency": "active: 35.5 µM"}
{"smiles": "Oc1ccccc1OCCOc1ccccc1OCCOc1ccccc1O", "Potency": "inactive"}
{"smiles": "Cc1cc(C(=O)CCC(=O)N(C)CC(=O)Nc2ccc(OC(F)(F)F)cc2)c(C)s1", "Potency": "inactive"}
{"smiles": "COc1cc(SC)ccc1C(=O)OC1CCOC1=O", "note": "(centres undefined)", "Potency": "inconclusive [inhibitor, single point]"}
{"smiles": "COCC(=O)N1CCC(Oc2ccc(C(=O)N3CCSCC3)cc2)CC1", "Potency": "inconclusive [inhibitor, partial curve]"}
{"smiles": "COc1ccc(C2C(C(=O)N3CCN(c4ccccn4)CC3)CC(=O)N2c2ccc(OC)cc2)cc1", "note": "(centres undefined)", "Potency": "inactive"}
{"smiles": "O=C(CCn1cccc1)NC1CCCc2ccccc21", "note": "(centres undefined)", "Potency": "inconclusive [inhibitor, partial curve]"}
{"smiles": "Nc1ncnc(Nc2ccc(F)cc2)n1", "Potency": "inactive"}
{"smiles": "CCc1ccc(NC(=O)C2CCN(S(=O)(=O)c3ccc4c(c3)CC(C)N4C(C)=O)CC2)cc1", "note": "(centres undefined)", "Potency": "inactive"}
{"smiles": "Cc1ccc(S(=O)(=O)c2ncccc2[N+](=O)[O-])cc1", "Potency": "active: 0.355 µM"}
{"smiles": "COc1cccc(NC(=O)CSc2nnc(Cc3cccn3C)n2-c2ccc(F)cc2)c1", "Potency": "inconclusive [inhibitor, partial curve]"}
